# Reference: the supplement of paper PMC8728848
# Some of the results follow.
# B1: GSL-I-B4 (Griffonia simplicifolia) (protein)
# chain: NFWSDVEDSIIFQGDANTTAGTLQLCKTNQYGTPLQWSAGRALYSDPVQLWDNKTESVASFYTEFTFFLKITGNGPADGLAFFLAPPDSDVKDAGEYLGLFNKSTATQPSKNQVVAVEFDTWTNPNFPEPSYRHIGINVNSIVSVATKRWEDSDIFSGKIATARISYDGSAEILTVVLSYPDGSDYILSHSVDMRQNLPESVRVGISASTGNNQFLTVYILSWRFSSNLQSTSVKAAMEPEITRTVV
# Assays:
# Experiment in all cases: glycan array binding signal (z-score within array); higher = stronger binding
# Details in all cases: glycan notation: IUPAC condensed, linker removed
# [1] = target: Gal(b1-4)GlcNAc(b1-3)Gal(b1-4)GlcNAc(b1-3)Gal(b1-4)GlcNAc(b1-2)Man(a1-3)[Gal(b1-4)GlcNAc(b1-3)Gal(b1-4)GlcNAc(b1-3)Gal(b1-4)GlcNAc(b1-2)Man(a1-6)]Man(b1-4)GlcNAc(b1-4)GlcNAc
# Procedure, shortened: (§1)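 Arrays were curated from the Consortium for Functional Glycomics database, 3228 in total, and kept only where the protein sequence was available. Binding is expressed as a within-array Z-score. This score was averaged across arrays of the same protein sequence at different concentrations or buffers and across linkers, and negative values can be read as non-binding.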
# [2] = target: Gal(b1-4)GlcNAc(b1-3)Gal(b1-4)GlcNAc(b1-3)Gal(b1-4)GlcNAc(b1-2)Man(a1-3)[Gal(b1-4)GlcNAc(b1-3)Gal(b1-4)GlcNAc(b1-3)Gal(b1-4)GlcNAc(b1-2)Man(a1-6)]Man(b1-4)GlcNAc(b1-4)[Fuc(a1-6)]GlcNAc
# Procedure, shortened: as §1
# [3] = target: Gal(b1-4)GlcNAc(b1-3)Gal(b1-4)GlcNAc(b1-3)Gal(b1-4)GlcNAc(b1-2)[Gal(b1-4)GlcNAc(b1-3)Gal(b1-4)GlcNAc(b1-3)Gal(b1-4)GlcNAc(b1-6)]Man(a1-6)[Gal(b1-4)GlcNAc(b1-3)Gal(b1-4)GlcNAc(b1-3)Gal(b1-4)GlcNAc(b1-2)Man(a1-3)]Man(b1-4)GlcNAc(b1-4)[Fuc(a1-6)]GlcNAc
# Procedure, shortened: as §1
# [4] = target: Gal(b1-4)GlcNAc(b1-3)Gal(b1-4)GlcNAc(b1-3)Gal(b1-4)GlcNAc(b1-3)Gal(b1-4)GlcNAc(b1-2)Man(a1-3)[Gal(b1-4)GlcNAc(b1-3)Gal(b1-4)GlcNAc(b1-3)Gal(b1-4)GlcNAc(b1-3)Gal(b1-4)GlcNAc(b1-2)Man(a1-6)]Man(b1-4)GlcNAc(b1-4)GlcNAc
# Procedure, shortened: as §1
# [5] = target: Gal(b1-4)GlcNAc(b1-3)Gal(b1-4)GlcNAc(b1-3)Gal(b1-4)GlcNAc(b1-3)Gal(b1-4)GlcNAc(b1-2)Man(a1-3)[Gal(b1-4)GlcNAc(b1-3)Gal(b1-4)GlcNAc(b1-3)Gal(b1-4)GlcNAc(b1-3)Gal(b1-4)GlcNAc(b1-2)Man(a1-6)]Man(b1-4)GlcNAc(b1-4)[Fuc(a1-6)]GlcNAc
# Procedure, shortened: as §1
# [6] = target: Gal(b1-4)GlcNAc(b1-3)Gal(b1-4)GlcNAc(b1-3)Gal(b1-4)GlcNAc(b1-3)Gal(b1-4)GlcNAc(b1-2)[Gal(b1-4)GlcNAc(b1-3)Gal(b1-4)GlcNAc(b1-3)Gal(b1-4)GlcNAc(b1-3)Gal(b1-4)GlcNAc(b1-6)]Man(a1-6)[Gal(b1-4)GlcNAc(b1-3)Gal(b1-4)GlcNAc(b1-3)Gal(b1-4)GlcNAc(b1-3)Gal(b1-4)GlcNAc(b1-2)Man(a1-3)]Man(b1-4)GlcNAc(b1-4)[Fuc(a1-6)]GlcNAc
# Procedure, shortened: as §1
# [7] = target: Gal(b1-4)GlcNAc(b1-3)Gal(b1-4)GlcNAc(b1-3)Gal(b1-4)GlcNAc(b1-3)Gal(b1-4)GlcNAc(b1-3)Gal(b1-4)GlcNAc(b1-2)Man(a1-3)[Gal(b1-4)GlcNAc(b1-3)Gal(b1-4)GlcNAc(b1-3)Gal(b1-4)GlcNAc(b1-3)Gal(b1-4)GlcNAc(b1-3)Gal(b1-4)GlcNAc(b1-2)Man(a1-6)]Man(b1-4)GlcNAc(b1-4)GlcNAc
# Procedure, shortened: as §1
# [8] = target: Gal(b1-4)GlcNAc(b1-3)Gal(b1-4)GlcNAc(b1-3)Gal(b1-4)GlcNAc(b1-3)Gal(b1-4)GlcNAc(b1-3)Gal(b1-4)GlcNAc(b1-2)Man(a1-3)[Gal(b1-4)GlcNAc(b1-3)Gal(b1-4)GlcNAc(b1-3)Gal(b1-4)GlcNAc(b1-3)Gal(b1-4)GlcNAc(b1-3)Gal(b1-4)GlcNAc(b1-2)Man(a1-6)]Man(b1-4)GlcNAc(b1-4)[Fuc(a1-6)]GlcNAc
# Procedure, shortened: as §1
# [9] = target: Gal(b1-4)GlcNAc(b1-3)Gal(b1-4)GlcNAc(b1-3)Gal(b1-4)GlcNAc(b1-3)Gal(b1-4)GlcNAc(b1-3)Gal(b1-4)GlcNAc(b1-2)[Gal(b1-4)GlcNAc(b1-3)Gal(b1-4)GlcNAc(b1-3)Gal(b1-4)GlcNAc(b1-3)Gal(b1-4)GlcNAc(b1-3)Gal(b1-4)GlcNAc(b1-6)]Man(a1-6)[Gal(b1-4)GlcNAc(b1-3)Gal(b1-4)GlcNAc(b1-3)Gal(b1-4)GlcNAc(b1-3)Gal(b1-4)GlcNAc(b1-3)Gal(b1-4)GlcNAc(b1-2)Man(a1-3)]Man(b1-4)GlcNAc(b1-4)[Fuc(a1-6)]GlcNAc
# Procedure, shortened: as §1
# [10] = target: Gal(b1-4)GlcNAc(b1-3)Gal(b1-4)GlcNAc(b1-3)Gal(b1-4)GlcNAc(b1-3)Gal(b1-4)GlcNAc(b1-3)Gal(b1-4)GlcNAc(b1-3)Gal(b1-4)GlcNAc(b1-2)Man(a1-3)[Gal(b1-4)GlcNAc(b1-3)Gal(b1-4)GlcNAc(b1-3)Gal(b1-4)GlcNAc(b1-3)Gal(b1-4)GlcNAc(b1-3)Gal(b1-4)GlcNAc(b1-3)Gal(b1-4)GlcNAc(b1-2)Man(a1-6)]Man(b1-4)GlcNAc(b1-4)GlcNAc
# Procedure, shortened: as §1
# [11] = target: Gal(b1-4)GlcNAc(b1-3)Gal(b1-4)GlcNAc(b1-3)GalNAc
# Procedure, shortened: as §1
# [12] = target: Gal(b1-4)GlcNAc(b1-3)Gal(b1-4)GlcNAc(b1-3)[Gal(b1-4)GlcNAc(b1-3)Gal(b1-4)GlcNAc(b1-6)]GalNAc
# Procedure, shortened: as §1
# [13] = target: Gal(b1-4)GlcNAc(b1-3)Gal(b1-4)GlcNAc(b1-6)[Gal(b1-3)]GalNAc
# Procedure, shortened: as §1
# [14] = target: Gal(b1-4)GlcNAc(b1-3)Gal(b1-4)[Fuc(a1-3)]GlcNAc(b1-3)Gal(b1-4)[Fuc(a1-3)]GlcNAc
# Procedure, shortened: as §1
# [15] = target: Gal(b1-4)GlcNAc(b1-3)GalNAc
# Procedure, shortened: as §1
# [16] = target: Gal(b1-4)GlcNAc(b1-3)[Fuc(a1-3)GlcNAc(b1-6)]Gal(b1-4)Glc
# Procedure, shortened: as §1
# [17] = target: Gal(b1-4)GlcNAc(b1-3)[Gal(b1-4)GlcNAc(b1-6)]Gal(b1-4)GlcNAc
# Procedure, shortened: as §1
# [18] = target: Gal(b1-4)GlcNAc(b1-3)[GlcNAc(b1-6)]Gal(b1-4)GlcNAc
# Procedure, shortened: as §1
# [19] = target: Gal(b1-4)GlcNAc(b1-6)Gal(b1-4)GlcNAc
# Procedure, shortened: as §1
binder,measurement,setting,value
B1,glycan array binding signal (z-score),[1],0.143
same,glycan array binding signal (z-score),[2],-0.204
same,glycan array binding signal (z-score),[3],-0.105
same,glycan array binding signal (z-score),[4],-0.16
same,glycan array binding signal (z-score),[5],-0.182
same,glycan array binding signal (z-score),[6],-0.191
same,glycan array binding signal (z-score),[7],-0.139
same,glycan array binding signal (z-score),[8],-0.136
same,glycan array binding signal (z-score),[9],-0.188
same,glycan array binding signal (z-score),[10],-0.133
same,glycan array binding signal (z-score),[11],0.126
same,glycan array binding signal (z-score),[12],0.017
same,glycan array binding signal (z-score),[13],0.05
same,glycan array binding signal (z-score),[14],-0.193
same,glycan array binding signal (z-score),[15],-0.185
same,glycan array binding signal (z-score),[16],-0.193
same,glycan array binding signal (z-score),[17],-0.117
same,glycan array binding signal (z-score),[18],-0.2
same,glycan array binding signal (z-score),[19],-0.182
